Assay results: the supplement of paper PMC11417369
The other results are listed elsewhere or left out.

The sequences below were run on PF3D7_0420300 AP2 domain 1 (GST-tagged) (assay: gcPBM binding intensity (ln(normalized median fluorescence intensity)); higher = stronger DNA binding).
Procedure, shortened: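 The highest Masliner-normalised natural-log median intensity across replicate spots of either probe orientation is reported as binding intensity. GST-tagged P. falciparum DNA-binding domains expressed in E. coli were applied for 1 h to an Agilent 4 × 180k array of primer-extended double-stranded 36-bp intergenic genomic probes plus negative controls, and bound protein was detected with Alexa488 anti-GST antibody and scanned at 488 nm.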

Sequence | gcPBM binding intensity (ln)
CAAAAAACAACAGATCGTACAAAATATTATATATAT [XGTACX_site2285] | 9.58
TTGAAAAATGAGCACACACACAAATACATACATATT [CACACA_site3231] | 10.1
TTTTAACAAAAAAAAAGAAAAGAAAAGAAAATAATA [XGTACX_negctrl_site530] | 9.2
TTAACTCTGGAGAAAAGTACATAGTATCTGGTAACA [XGTACX_site4941] | 9.05
TAAATATGTGTATGTAGTACATAGTGTTTTTTTTTT [XGTACX_site3748] | 9.22
ATATTATGAATTGTCACACATATATTTAAAAATGTA [CACACA_site4852] | 9.16
TGCATATTACTTTTTCACATAAAAATGATCCGATTA [GTGCAC_negctrl_site526] | 8.95
AAAAAATGACTTAATATGAGCATATATTATGTTGTT [CACACA_negctrl_site1609] | 9.07
AAAATATAAAAATGAAGTACAAAAAAAAAAAAAAAA [XGTACX_site8132] | 9.09
GTTATACACATCAACACACACATACAACGTGGTGTA [CACACA_site6677] | 9.56
CATTAAAATTGAGAGATGCACTTTTTAAGACCTTGT | 9.03
AAAAAAAATTAAATAAATAAATATACACATATATAT [GTGCAC_negctrl_site394] | 9.26
AAAACATTGTTTATGTGTACATAATTATATTTACAA [XGTACX_site6926] | 9.1
TTTTTTTTTTTTTTTTTTTTACCCCTTTTTCAAAAA [CACACA_negctrl_site1524] | 8.39
ATAATATATTTATAATGTACAAACCATTTGTATTAA [XGTACX_site4370] | 9.12
TCTAACATATAATATTCACACACATATATATATTAT [CACACA_site8236] | 9.69
TGGTTTCAATAATTAATAAAATATATTATTGTGAAA [CACACA_negctrl_site442] | 8.84
ATTATTATTATATTTTGTACATATGTAACAATATAT [XGTACX_site5780] | 9.23
GTGTTTGAAAATAAAGCATGCAAATATATTTGAAAT [TGCATGCA_site386] | 9.22
TTTTTTTTGTTCATTGTGCACATTGCTTGCATGGAA [GTGCAC_site9693] | 9.05
AAAATAATAAATAAATGTACATATATATATATATAT [XGTACX_site3078] | 9.1
ATAAGATTATACAATTGTACGTTGTTCAAGATAAGG [XGTACX_site191] | 9.27
AACTAATTCATGTTATATTAGATAAAAAAAAAAAAA [TGCATGCA_negctrl_site340] | 9.01
AAATATATTATATGTACACACAAAATTAAGGGATAT [CACACA_site1375] | 9.89
